Data: PubChem BioAssay AID686979 (National Center for Advancing Translational Sciences (NCATS), 2013)
Where “and” joins values, the source holds several entries; their conditions need not be identical. Equal entries are not always repeated. Among all 420,000 compounds or so, about 50,000 (12%) were called active. Inconclusive means that the source gave no clear call. Such entries were picked first, then a sample of the others. Calls follow the shape of the dose curve; as a rule, active = well fitted inhibition curve with a large enough effect; inconclusive = small, poorly fitted or top-dose-only effect; inactive = flat fitted curve, though single readings scatter. Potencies beside an inconclusive call are fits to weak or partial responses and may not hold up.

Assay: qHTS for Inhibitors of human tyrosyl-DNA phosphodiesterase 1 (TDP1): qHTS in cells in presence of CPT; also: nearly all actives have a fitted effect of over 55% in size
Settings: chicken DT40 Tdp1-/-;hTDP1 cells + 20 nM CPT, ATP luminescence, 48 h; series mostly up to 46.2 µM
Method in brief: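 Cell growth measured by CellTiter-Glo luminescence after a minimum 48 h, 37 C compound exposure with 20 nM CPT in Tdp1-knockout DT40 cells stably expressing hTDP1, seeded 400/well; qHTS titration format.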
Potency is read from the fitted curve at half-maximal effect; tags tell the direction and shape of the fitted curve.

For `CN(C)c1cc2c(cc1NS(=O)(=O)c1ccccc1)n(C)c(=O)n2C`, which Potency is on record?
The Potency was inconclusive: 29.1 µM [inhibitor, single point] and inconclusive: 20.6 µM [inhibitor, partial curve].

Which Potency does the source give for `COc1ccc(CNC(=O)c2cc3c(=O)n4ccccc4nc3n(CC3CCCO3)c2=N)cc1` (stereo unspecified) here?
Its Potency is inconclusive: 14.6 µM [inhibitor, partial curve, poor fit].

For `Cc1noc(C)c1CSc1ncnc2sc(C)c(C)c12`, which Potency is on record?
The Potency was “inactive”.

Which Potency does the source give for `N=c1c(C(=O)NCCc2ccccc2)cc2c(=O)n3ccccc3nc2n1CC1CCCO1` (stereo unspecified) here?
Its Potency is inconclusive: 20.6 µM [inhibitor, single point].

Which Potency does the source give for `CC(C)Oc1ccc(C(=O)NC(=S)Nc2ccc(Cl)c(C(=O)O)c2)cc1` here?
Its Potency is inconclusive: 23.1 µM [inhibitor, partial curve, poor fit].

With `O=C(C(c1ccccc1)C(O)c1ccccc1)N1CCOCC1` (stereo unspecified) as the compound, how does the Potency read?
The Potency was “inactive”.

Which Potency does the source give for `Cc1cc(C(=O)CN2C(=O)C(=O)N(Cc3ccco3)C2=O)c(C)n1CCc1ccccc1` here?
The Potency was active: 23.1 µM.

Which Potency does the source give for `N#C/C(=C\c1ccc(O)cc1)C(=O)NCc1cccc(Cl)c1` here?
Its Potency is “inactive”.

For `CCc1nc2ccc(C(=O)Nc3cccc(OC)c3)cn2c1N(CC)CCN(C)C`, which Potency is on record?
Its Potency is “inactive”.

With `O=C(C1CC1)N1CCc2cc(Br)cc(S(=O)(=O)NC3CCCCC3)c21` as the compound, how does the Potency read?
The Potency was inconclusive: 23.1 µM [inhibitor, single point].

Which Potency does the source give for `Cc1cccc(NC(=O)CNC(=O)c2sc3ccccc3c2Cl)n1` here?
The Potency was inconclusive: 29.1 µM [inhibitor, single point].

With `CCO[C@H]1OC(C(=O)NCc2ccccc2)=C[C@@H](C2CCCCC2)[C@@H]1CCCO` as the compound, how does the Potency read?
The Potency was active: 18.4 µM.

For `Nc1cccc(/C=C/c2ccnc3ccccc23)c1`, which Potency is on record?
Its Potency is inconclusive: 22.4 µM [inhibitor, single point].

With `COc1ccc(CN(C(=O)Nc2cccc(Cl)c2)c2ccccn2)cc1OC` as the compound, how does the Potency read?
The Potency was inconclusive: 23.1 µM [inhibitor, single point].

For `CCOC1=C2[C@@H](CN(S(=O)(=O)c3ccc(C)cc3)[C@H]2c2ccccc2Cl)[C@H]2C(=O)N(C(C)(C)C)C(=O)[C@H]2C1`, which Potency is on record?
Its Potency is inconclusive: 29.1 µM [inhibitor, single point].

Which Potency does the source give for `CN1/C(=C\C(=O)Nc2ccc(Cl)cc2)C(C)(C)c2ccccc21` here?
Its Potency is inconclusive: 23.1 µM [inhibitor, single point].

For `Cc1cccc(N2CCN(C(=O)c3ccc(CS(=O)c4cccc(Cl)c4)o3)CC2)c1C` (stereo unspecified), which Potency is on record?
Its Potency is active: 0.82 µM.

Which Potency does the source give for `COCCn1c(C)cc(C(=O)CSc2nc(C)cc(C)c2C#N)c1C` here?
The Potency was active: 20.6 µM.

For `Cc1ccc(CNC(=O)C(=O)NCC2OCCN2S(=O)(=O)c2ccc(Cl)cc2)cc1` (stereo unspecified), which Potency is on record?
Its Potency is inconclusive: 29.1 µM [inhibitor, single point].

With `COc1ccc(/C=N/NC(=O)c2cccc(NC(=O)c3ccc(Cl)cc3)c2)c(OC)c1` as the compound, how does the Potency read?
The Potency was “inactive”.

For `Cc1cc(OCC(=O)N(C)C2CCCCC2)cc(C)c1Cl`, which Potency is on record?
Its Potency is inconclusive: 23.1 µM [inhibitor, single point].

For `CC(=O)c1ccc(N2CCN(C(=O)C3CCCN3S(=O)(=O)c3cccc4nsnc34)CC2)cc1` (stereo unspecified), which Potency is on record?
Its Potency is inconclusive: 29.1 µM [inhibitor, single point].

With `COc1ccc(C(=O)c2ccc(CC#N)s2)cc1` as the compound, how does the Potency read?
Its Potency is inconclusive: 18.4 µM [inhibitor, single point].

With `O=C(COc1ccc2ccccc2c1)N1CCN(c2ccccc2O)CC1` as the compound, how does the Potency read?
The Potency was inconclusive: 18.4 µM [inhibitor, single point].

Which Potency does the source give for `OC(COc1ccc2c(c1)OCO2)CN1CCN(c2ccccc2)CC1` (stereo unspecified) here?
Its Potency is “inactive”.

For `COc1ccc(CNC(=O)CCCN2C(=O)CSc3c2c(C)nn3-c2ccccc2)c(OC)c1`, which Potency is on record?
The Potency was inconclusive: 29.1 µM [inhibitor, single point].

Which Potency does the source give for `COc1cc(NC(=O)c2ccc(-c3cccnc3)c3ccoc23)cc(OC)c1OC` here?
Its Potency is active: 13 µM.

For `O=C(CNc1ccc(Br)cc1)Nc1cccc(S(=O)(=O)N2CCCC2)c1`, which Potency is on record?
The Potency was inconclusive: 29.1 µM [inhibitor, single point].

With `COc1ccccc1OCC(=O)NNC(=S)NC(=O)c1ccco1` as the compound, how does the Potency read?
The Potency was inconclusive: 20.6 µM [inhibitor, single point].

For `CCSc1nnc2c(n1)OC(c1ccc(C)cc1)N(C(C)=O)c1ccccc1-2` (stereo unspecified), which Potency is on record?
The Potency was inconclusive: 16.4 µM [inhibitor, single point].

With `O=C(Nc1ccc(O)c(-c2nc3ccccc3o2)c1)C1(c2ccccc2)CCCC1` as the compound, how does the Potency read?
The Potency was inconclusive: 18.4 µM [inhibitor, partial curve].

For `COc1ccc(OC)c(N(CC(=O)Nc2ccccc2C(=O)NCc2ccco2)S(C)(=O)=O)c1`, which Potency is on record?
The Potency was inconclusive: 35.5 µM [inhibitor, partial curve, poor fit].

Which Potency does the source give for `Cc1ccsc1C(=O)OCc1nc2ccsc2c(=O)[nH]1` here?
Its Potency is inconclusive: 29.1 µM [inhibitor, single point].

Which Potency does the source give for `COc1ccc(Cl)cc1NC(=O)CCS(=O)(=O)c1cccc2nonc12` here?
The Potency was inconclusive: 14.6 µM [inhibitor, partial curve].

Which Potency does the source give for `O=C(O/N=C1/CCSc2ccccc21)c1ccccc1` here?
The Potency was “inactive”.

With `Cc1cccc(/C=N/NC(=O)c2ccc(F)cc2)n1` as the compound, how does the Potency read?
Its Potency is inconclusive: 16.4 µM [inhibitor, single point].

With `COc1ccc(N2CCN(C(c3ccc(C)cc3)c3nnnn3C(C)(C)C)CC2)cc1` (stereo unspecified) as the compound, how does the Potency read?
Its Potency is inconclusive: 35.5 µM [inhibitor, single point].

With `CCNC(=O)c1cc(NC(=O)COC)cc2nc(-c3ccncc3)n(C)c12` as the compound, how does the Potency read?
The Potency was inconclusive: 32.6 µM [inhibitor, partial curve, poor fit].

For `O=C(Nc1ccnn1C1CCN(C/C=C/c2ccccc2)CC1)c1cccc(F)c1`, which Potency is on record?
The Potency was inconclusive: 20.6 µM [inhibitor, partial curve].

Which Potency does the source give for `COc1ccc(-c2nn(-c3ccccc3)cc2CN2CCCO2)c(F)c1` here?
The Potency was inconclusive: 32.6 µM [inhibitor, single point].

With `COc1cc(NC(=S)NC(=O)c2ccccc2C)ccc1NC(=O)c1cccs1` as the compound, how does the Potency read?
The Potency was inconclusive: 29.1 µM [inhibitor, single point].
